The target in the test is T1, Adrenergic α1D (Homo sapiens, UniProt P25100).
T1 sequence (P25100 1-572): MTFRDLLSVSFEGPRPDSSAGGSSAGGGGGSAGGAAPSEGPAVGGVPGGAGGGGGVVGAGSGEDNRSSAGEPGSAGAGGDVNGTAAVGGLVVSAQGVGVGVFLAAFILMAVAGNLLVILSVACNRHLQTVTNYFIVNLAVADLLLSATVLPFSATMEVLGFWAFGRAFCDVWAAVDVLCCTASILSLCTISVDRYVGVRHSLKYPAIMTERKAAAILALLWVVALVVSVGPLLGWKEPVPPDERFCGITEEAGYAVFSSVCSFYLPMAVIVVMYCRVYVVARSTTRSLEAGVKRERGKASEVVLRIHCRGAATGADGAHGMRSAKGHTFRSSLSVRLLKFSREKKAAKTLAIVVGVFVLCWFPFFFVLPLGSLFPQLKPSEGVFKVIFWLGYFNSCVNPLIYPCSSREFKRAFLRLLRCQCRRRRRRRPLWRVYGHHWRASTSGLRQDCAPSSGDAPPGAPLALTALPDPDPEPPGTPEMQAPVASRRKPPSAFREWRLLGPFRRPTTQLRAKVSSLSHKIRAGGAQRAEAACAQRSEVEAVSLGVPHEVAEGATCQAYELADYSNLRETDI
Description: biochemical.

This is an account of results in US11185532B2, “Methods of treating pruritus” (Clexio Biosciences Ltd., priority 2019, dated 2021).

One may read the inhibition as the drop in the measured response relative to a control, in per cent.

`Cc1cccc(Cc2c[nH]cn2)c1C` [detomidine] registered an inhibition at 10 µM of 95%.
